# PubChem BioAssay AID1956 (SRMLSC, 2009)
# The list shows a part of the results. These are further read-outs of the screen, such as a control signal, another cell line or another target. No call is given for them.
# Assay: enhancers of HSV replication in host cells, fold increase, host cell viability (AID 1956); also: tested in PC3 cells
# Conditions: HSV replication augmentation in cells; fold increase: measured here: primary screen fold increase 10 uM, at 10 µM, stronger effect = higher value; viability: measured here: host cell viability series, at 25 µM, stronger effect = lower value
SMILES,fold increase,viability [%]
O=S(=O)(c1ccccc1)c1cc(O)ccc1O,1.37,97.2
CCOc1ccc(N=C2NC(=O)S/C2=C\c2ccc(O)cc2)cc1,1.99,89.9
CSc1nsc(/C=C/Nc2ccc(F)cc2F)c1C#N,1.64,97.1
N#Cc1c(NC(=S)NC(=O)c2ccccc2)sc2c1CCN(CCc1ccccc1)C2,5.39,–
N#C/C(=C\c1ccccn1)c1nc2ccccc2s1,7.95,–
Cc1cc(=O)oc(C)c1C(=O)Nc1ccc2ncccc2c1,1.58,101
CCOC(=O)C1=C(C)N=c2s/c(=C\c3cccn3C)c(=O)n2C1c1cccc(OC)c1OC (stereo unspecified),2.11,80.2
COc1ccc(NS(=O)(=O)c2cc([N+](=O)[O-])ccc2N/N=C\c2c(C)[nH]c3ccccc23)cc1,1.18,84.9
CCCCOCCCn1c(-c2ccco2)nc2nc3ccccc3nc21,1.45,92.2
Cc1nnc(-c2ccccc2)c(=O)n1/N=C/c1c(O)ccc2ccccc12,1.97,–
COc1cccc(C2=CC(c3ccc(N(C)C)cc3)n3ncnc3N2)c1 (stereo unspecified),7.22,90.9
O=C(NNc1cc(Cl)ccc1Cl)C1CCC1,1.34,95.9
N#C/C(=C/c1ccc(N2CCCCC2)o1)C(=O)NCCc1c[nH]c2ccccc12,4.11,93.8
CCN(CC)C(=O)c1ccc2c(c1[N+](=O)[O-])C(=O)c1ccccc1C2=O,1.39,84.7
CC1=C(C(=O)N(C)C)C(c2cccc(Cl)c2)NC(=O)N1 (stereo unspecified),1.6,88.3
O=C1NC(=Nc2cccnc2)S/C1=C\c1cccc(F)c1,1.34,92.7
CCOC(=O)Cc1cc(=O)n(-c2nc3ccccc3s2)[nH]1,1.16,–
COc1ccc(C(C)(C)C)cc1NC(=O)c1ccoc1C,1.34,94.5
Cn1cccc1/C=C1\CC(C(C)(C)C)C/C(=C\c2cccn2C)C1=O (stereo unspecified),4.69,86.2
O=C1NC(c2ccccc2)=N/C1=C/c1ccco1,1.35,96.2
N#CCCN1CCN(S(=O)(=O)c2ccc(S(=O)(=O)NCC3CCCO3)cc2)CC1 (stereo unspecified),1.33,94.2
COc1cc2c(cc1OC)C1=CC(=O)C(=O)N1C(C)(C)C2,4.59,–
O=C(CSc1nnc(Cc2cc(=O)[nH]c(=O)[nH]2)n1-c1ccc(Cl)cc1)NC1CCCC1,1.55,94.3
N#C/C(C(N)=O)=C1/SC(Cc2ccc(F)cc2)C(=O)N1c1ccccc1 (stereo unspecified),1.35,95.6

SMILES,fold increase,viability [%]
COc1ccccc1/C=C/C=C1\Oc2c(ccc(O)c2CN2CCN(CCO)CC2)C1=O,3.67,–
COc1ccc(C2SCC(C(=O)O)N2C(C)=O)cc1OC (stereo unspecified),1.39,101
COc1cccc2c1C(=O)c1c(O)c3c(c(O)c1C2=O)C[C@@](O)(C(=O)CO)C[C@@H]3O[C@H]1C[C@H](N)[C@H](O)[C@H](C)O1,4.34,31.6
C=CCc1c(C)nc(-c2ccccc2)nc1Nc1ccccc1O,1.37,82.8
CCOc1cc(/C=C2/NC(=O)N(CC(=O)Nc3cccc(C)c3)C2=O)ccc1OC,1.24,–
CCS(=O)(=O)C1=NN2C(=N)/C(=C\c3ccc(SCc4ccco4)o3)C(=O)N=C2S1,2.49,91.8
COc1ccc(-c2nn(-c3ccccc3)cc2C(=O)Nc2nc(CC(C)=O)ns2)cc1,1.12,–
COc1ccc(OCC(=O)OC2CCCN(C)C2)cc1 (stereo unspecified),1.45,97
CC(C)OC(=O)c1c(NS(=O)(=O)c2ccccc2)sc2c1CCCC2,1.12,–
CCCc1nc(SCC(N)=O)[nH]c(=O)c1CC,1.34,99.7
COc1ccccc1NC(=O)NCCN1C(=O)C2C3C=CC(C3)C2C1=O (stereo unspecified),1.45,107
N#C/C(=C\c1ccc(N2CCCCC2)o1)C(=O)Nc1cccc(Br)c1,5.87,95.6
Cc1cccc(C=Nc2ccc3c4c(cccc24)CC3)c1O,1.87,92.2
O=C(O)c1cc(N/N=C/c2ccncc2)ccc1Cl,1.36,98.4
COc1ccc(C2c3sc(=O)[nH]c3SC3C(=O)N(c4ccccc4)C(=O)C32)cc1 (stereo unspecified),1.47,96.6
COC(=O)N(NC(=O)C(O)(c1ccccc1)c1ccccc1)c1ccccc1,1.33,92.3
CCn1c(SCC(=O)N2CCOCC2)nc2oc3c(Cl)cc(Cl)cc3c(=O)c2c1=O,1.42,50.7
CC(C)CNS(=O)(=O)c1ccc(CCC(=O)Nc2ccc3c(c2)OCO3)cc1,1.13,93.3
c1csc(-c2nnsc2-c2nc3ccccc3[nH]2)c1,1.61,–
CNc1cc(CSC)nc(SCc2ccc(Cl)c(Cl)c2)n1,1.58,92.6
CC1CCCC2(C1)NC(=S)N(c1ccccc1)N2 (stereo unspecified),1.42,101
CCCCCCn1c(=O)[nH]c2nc3cc(N)ccc3nc2c1=O,9.44,87.9
COc1cc(/C=C2\SC(=Nc3c(C)n(C)n(-c4ccccc4)c3=O)NC2=O)ccc1O,1.41,–
CCCCN1/C(=C/c2ccc3ccccc3[n+]2CC)Sc2ccccc21,8.27,38

SMILES,fold increase,viability [%]
N#CC1=C(N)Oc2c(oc(CO)cc2=O)C1c1cccs1 (stereo unspecified),1.35,92.6
COc1cc(/C=C2\SC(=S)N(N3CCOCC3)C2=O)ccc1O,2.48,96.7
Cc1nn(C)c(C)c1N1C(=O)c2cccc3c(Br)ccc(c23)C1=O,1.99,84.8
COc1ccc(CCNC(=S)N(C)C)cc1OC,1.35,104
COc1ccc2c3c([nH]c2c1)C1CC2C(CC(O)C(OC)C2C(=O)O)CN1CC3 (stereo unspecified),1.26,98.6
Nc1c(C(=O)Nc2ccc(S(=O)(=O)N3CCCC3)cc2)sc2nc3cc4c(cc3cc12)CCC4,1.77,10.9
O=C(O)c1ccc(COc2ccccc2C=C2C(=O)c3ccccc3C2=O)cc1,1.84,91.7
Cc1ccccc1-n1c(Cn2c(=O)sc3ccccc32)nnc1SCC(=O)Nc1nccs1,1.39,93.3
CC1(C)CC(=O)C(C=Nc2ccc(C(=O)c3ccccc3)cc2N=CC2=C(O)CC(C)(C)CC2=O)=C(O)C1,1.55,73.9
Cc1cc(C(=O)Nc2nc3c(C)cccc3s2)c(C)o1,1.1,–
COC(=O)c1c(NC(=O)CN2CCCc3ccccc32)sc(C)c1C,1.61,91.3
CCOC(=O)c1sc2cc([N+](=O)[O-])cc(SCC(C)C)c2c1N,3.6,103
Cc1c(-n2cc(C(=O)c3cc(F)ccc3O)cc(C#N)c2=O)c(=O)n(-c2ccccc2)n1C,1.77,92.7
Cc1c(N=C2N=C(NC(=O)c3ccc(F)cc3)c3ccccc32)c(=O)n(-c2ccccc2)n1C,3.41,–
O=C(/C=C/c1cn(CC(O)CN2CCCCC2)c2ccccc12)c1cccs1 (stereo unspecified),1.47,36
CCCCN1C(=O)/C(=C/C=C2/CC(C)(C)CN2C)SC1=S,6.16,–
O=C(COc1cccc2ccccc12)N/N=C/c1ccncc1,1.34,92.9
Cc1cc(N2CCCC2)ccc1/C=C1/C(=O)N(C)C(=S)N1C,9.58,67.4
O=C1c2ccccc2S(=O)(=O)c2cc(N3CCC4(CC3)OCCO4)ccc21,1.71,98.5
Nc1c(Cl)ncnc1N/N=C/c1ccc2ccccc2n1,1.52,8.48
COc1ccc(-c2nncnn2)cc1,4.43,–
Nc1cccc(S(=O)(=O)Nc2ccc(Br)cc2)c1,1.34,87.4
CC(C)(C)c1nc(CN2CCOCC2)ccc1O,1.44,94.2
Cc1ccc(Cn2c(CN3CCOCC3)nc3c2c(=O)[nH]c(=O)n3C)cc1,1.36,98

SMILES,fold increase,viability [%]
CCOc1ccc(C2CC(c3c(O)c4ccccc4oc3=O)=NN2c2ccccc2)cc1OC (stereo unspecified),1.65,93.5
Cc1ccc(C(=O)N2CCCC(c3nc4c(nnn4Cc4ccccc4)c(=O)[nH]3)C2)cc1 (stereo unspecified),1.38,96.9
CC(=O)Nc1ccc(S(=O)(=O)NC2(C(F)(F)F)N=C(c3ccccc3)NC2=O)cc1 (stereo unspecified),1.62,91.2
COc1ccccc1-c1cc(C(=O)N/N=C/C=C/c2ccccc2[N+](=O)[O-])c2ccccc2n1,1.18,–
C[N+]1=C(/C=C/Nc2ccccc2Cl)C(C)(C)c2ccccc21,1.69,59.2
CC1=C/C(=C\C=C(C#N)C#N)N(C)c2ccccc21,4.8,95.7
CCCc1nc2oc3cc(OC)ccc3c(=O)c2c(=O)n1Cc1ccco1,1.71,102
CCOC(=O)C1=C(CSc2nc(-c3ccccc3)ccc2C#N)OC(N)=C(C#N)C1c1cccnc1 (stereo unspecified),1.74,93.2
CCN1/C(=C/c2ccc3cc(C)ccc3[n+]2CC)Sc2ccccc21,7.5,20.4
CC(=O)c1cc(NC(=O)c2ccc(C)cc2)c(=O)oc1/C=C/N(C)C,1.09,88.6
Cc1cc(=O)[nH]c(N2CCOCC2)n1,1.42,95.3
COc1ccc(C2CC(c3ccco3)n3ncnc3N2)cc1 (stereo unspecified),2.02,99.3
Clc1nc(-c2ccccc2)cc(-c2ccc(Br)cc2)n1,1.45,96.6
CC1(C)CC(=O)C(C=NCCN2CCN(C(=S)Nc3ccc(F)cc3)CC2)=C(O)C1,1.39,92.9
CCN1c2ccccc2NC2C1C(C(C)=O)C(=O)N2c1ccc(Cl)cc1 (stereo unspecified),1.35,89.7
Fc1ccc(Br)cc1C1C=C(c2ccc(Br)cc2)Nc2ncnn21 (stereo unspecified),1.88,50.5
COc1cccc(C2=CC(c3ccc(C)cc3)n3ncnc3N2)c1 (stereo unspecified),1.43,87.3
O=C1/C(=C/c2ccc(N3CCCC3)cc2)NC(=S)N1C1CC1,1.83,88.6
NCCn1c(-c2ccccc2)cc(C(=O)O)c1-c1ccccc1F,1.42,93
CCn1c(NN)nc2sc3c(c2c1=O)CCC3,1.39,–
COC(=O)C1=C(C(=O)c2ccc(C)cc2)C(c2ccc(O)c(OC)c2)n2nnnc2N1 (stereo unspecified),1.95,99.1
CC[n+]1c(/C=C/C=C/N(C(C)=O)c2ccccc2)sc2cc(OC)ccc21,4.07,44.9
